Test results reported in PubChem BioAssay (NCI).
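Five concentrations, 48 hours, 96-well plates. GI50 is the concentration that inhibits growth by half. TGI is the concentration that stops growth completely.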

What follows are molecules tested on NCI-H322M lung (assay: NCI anticancer screen, dose series, 48 h).

Going from `Nc1ncnc2c1c(C(F)(F)F)cn2[C@@H]1O[C@H](CO)[C@@H](O)[C@H]1O` to `Nc1ccc(-c2nc3ccc4[nH]ncc4c3c3c2CCCC3)cc1F`, the GI50 rises from 0.901 µM to 1.51 µM (1.7-fold).

Going from `COc1cc(-c2cc(-c3ccc(N(C)C)cc3)nc(N3CCOCC3)c2C#N)cc(OC)c1OC` to `COc1ccc(C(=O)c2cc(OC)c(OC)c(OC)c2)cc1OC(C)=O`, the GI50 falls from 5.41 µM to 0.0936 µM (58-fold).

`COc1ccc(-c2ccc(/C=C/C(=O)NO)cc2)cc1` and `O=C(NCc1cccnc1)/C(=C\c1ccc(Br)cc1)S(=O)(=O)c1ccccc1` are within 1.5-fold of each other in GI50: 1.83 µM for the first, 1.29 µM for the second.

First: CC(=O)Oc1ccc(OC(C)=O)c2ccccc12
Second: N#Cc1c(NC(=O)c2ccccc2)sc2c1CCC(=O)C2
The GI50 of the first is 11-fold higher: 71.3 µM for the first, 6.27 µM for the second.

First: COc1cc(C)c(C(=O)O[C@H]2[C@H](O[C@H]3[C@@H](O)COC(O[C@H]4C[C@H]5[C@@H]6CC=C7C[C@@H](O)CC[C@]7(C)[C@H]6CC[C@]5(C)[C@H]4[C@H](C)C(=O)CCC(C)C)[C@@H]3OC(C)=O)OC[C@@H](O)[C@@H]2O)c(C)c1 (stereo not given in full)
Second: CN1/C(=C\C(I)C(I)C2=[N+](C)c3ccccc3C2(C)C)C(C)(C)c2ccccc21 (stereo not given)
The GI50 of the first is 4.3-fold higher: 4.31 µM for the first, 1.01 µM for the second.

`NC(=O)CCC(NC(=O)OCc1ccccc1)C(=O)OCC(=O)c1ccccc1` (stereo not given) showed a GI50 of over 100 µM.

Going from `Nc1ncnc2c1c(C(F)(F)F)cn2[C@@H]1O[C@H](CO)[C@@H](O)[C@H]1O` to `CCCCCCCCCCCC(=O)OCC1OC(n2cc(F)c(=O)[nH]c2=O)C(NC(=O)OCc2ccccc2)C(O)C1O` (stereo not given), the TGI falls from over 100 µM to 43.5 µM.

Compared with `Cn1c2c([N+](=O)[O-])[se]nc2c(=O)n1-c1ccc([N+](=O)[O-])cc1`, `O=[N+]([O-])c1cccc([N+](=O)[O-])c1S(=O)(=O)c1ccccc1` is 2.8-fold higher in TGI: 12.2 µM for the first, 34.1 µM for the second.

`Cc1ccc(S(=O)(=O)n2cncc2CO)cc1` and `Cc1ccc(S(=O)(=O)N(/N=C(\N)Oc2ccc(Cl)cc2)C(=N)Oc2ccc(Cl)cc2)cc1` cannot be ordered by TGI: over 100 µM for the first, over 100 µM for the second.

`Nc1nc(Cl)cc(N=Nc2ccccc2)n1` and `Clc1nc(-[n+]2ccc(-c3ccncc3)cc2)nc(Nc2ccccc2)c1Cl` cannot be ordered by TGI: over 100 µM for the first, over 100 µM for the second.

`COc1cc([C@@H]2c3cc4c(cc3[C@@H](NC(=O)c3ccc(N)cc3)C3COC(=O)[C@@H]32)OCO4)cc(OC)c1O` (stereo not given in full) and `COc1ccc(C(=O)c2cc(OC)c(OC)c(OC)c2)cc1OC(C)=O` cannot be ordered by TGI: over 100 µM for the first, over 100 µM for the second.

Going from `CCCCC[C@@H]1OCO[C@@]2(C)/C=C(C)/C=C/C(=O)O[C@H]([C@@H](C)[C@@H](O)[C@H](C)[C@@]3(O)C[C@@H](O[C@H]4C[C@@H](O)[C@H](O)[C@@H](C)O4)[C@H](C)[C@@H](C)O3)[C@@H](OC)/C=C/C=C(\C)C[C@@H]1[C@@H]2O` (stereo in doubt) to `COc1cc(C)c(C(=O)O[C@H]2[C@H](O[C@H]3[C@@H](O)COC(O[C@H]4C[C@H]5[C@@H]6CC=C7C[C@@H](O)CC[C@]7(C)[C@H]6CC[C@]5(C)[C@H]4[C@H](C)C(=O)CCC(C)C)[C@@H]3OC(C)=O)OC[C@@H](O)[C@@H]2O)c(C)c1` (stereo not given in full), the TGI rises from 1.86 µM to 21.4 µM (12-fold).

`CC(NC(=O)/C(=C/c1ccccc1O)NC(=O)c1ccccc1)C(=O)O` (stereo not given) and `NC(=O)CCC(NC(=O)OCc1ccccc1)C(=O)OCC(=O)c1ccccc1` (stereo not given) cannot be ordered by TGI: over 100 µM for the first, over 100 µM for the second.

Compared with `CC1(C)O[C@@H](CO)[C@H]([C@@]23OC[C@H]4OC(C)(C)OC4[C@@H]2OC(C)(C)O3)O1` (stereo not given in full), `CN1/C(=C\C(I)C(I)C2=[N+](C)c3ccccc3C2(C)C)C(C)(C)c2ccccc21` (stereo not given) is lower in TGI: over 100 µM for the first, 41.4 µM for the second.

`C/C(O)=C(\C=N\C(N)=S)C(=O)Nc1ccccc1C` and `CC(=O)Oc1ccc(OC(C)=O)c2ccccc12` cannot be ordered by TGI: over 100 µM for the first, over 100 µM for the second.

First: COc1cc(-c2cc(-c3ccc(N(C)C)cc3)nc(N3CCOCC3)c2C#N)cc(OC)c1OC
Second: Nc1ccc(-c2nc3ccc4[nH]ncc4c3c3c2CCCC3)cc1F
The TGI of the first is higher: over 100 µM for the first, 14.1 µM for the second.

Going from `Cc1cc(Cc2c(F)c(F)c(Cc3cc(C)no3)c(F)c2F)on1` to `Cc1cc(C)cc(-n2c3nc(=O)n(C)c(=O)c-3nc3ccccc32)c1`, the TGI falls from over 100 µM to 92.8 µM.

First: O=C(Nn1c(-c2ccccc2)nc2ccccc2c1=O)c1ccccn1
Second: O=C(NCc1cccnc1)/C(=C\c1ccc(Br)cc1)S(=O)(=O)c1ccccc1
The TGI of the first is higher: over 100 µM for the first, 2.62 µM for the second.

`CS(=O)(=O)OCCN1CCC2(CC1)SSC1(CCN(CCOS(C)(=O)=O)CC1)S2` and `CN(CCc1ccc(Cl)c(Cl)c1)[C@H]1CCCC[C@H]1N1CCCC1` cannot be ordered by TGI: over 100 µM for the first, over 100 µM for the second.

Compared with `COc1ccc(-c2ccc(/C=C/C(=O)NO)cc2)cc1`, `COC(=O)C1=C(O)C(C(=O)OC)[C@@]2(O)[C@@H](C(=O)OC)C(c3ccc(OC(=O)/C(=C/c4ccc(Cl)cc4)c4ccc(Cl)cc4)cc3)C[C@@H]1[C@@H]2C(=O)OC` (stereo not given in full) is higher in TGI: 19 µM for the first, over 100 µM for the second.

`CN1CCn2c(Br)ccc2C1=O` and `N#Cc1c(NC(=O)c2ccccc2)sc2c1CCC(=O)C2` cannot be ordered by TGI: over 100 µM for the first, over 100 µM for the second.

`S=c1nc(-c2nc(=S)[nH]c3c2CCCCCCCCCC3)c2c([nH]1)CCCCCCCCCC2` and `COC(=O)c1sc(=S)sc1SCc1ccccc1CSc1sc(=S)sc1C(=O)OC` cannot be ordered by TGI: over 100 µM for the first, over 100 µM for the second.

`S=c1nc[nH]c2c1ncn2Cc1ccco1` and `N#Cc1c(Nc2ccc(F)cc2)[n+]([O-])c2ccc(Cl)cc2[n+]1[O-]` cannot be ordered by TGI: over 100 µM for the first, over 100 µM for the second.
